Patent US8957024B2, “Composition and methods for reducing opioid-induced pruritus” (priority 2011, dated 2015)

Target: T1, Myc-GRPR (Mus musculus, UniProt P21729)
T1 construct: expressed in transfected cells
Experiment: Receptor internalization assay (ELISA, immunofluorescence staining) in HEK 293 cells: GRPR
Format: cell-based

T1 sequence (P21729 whole entry): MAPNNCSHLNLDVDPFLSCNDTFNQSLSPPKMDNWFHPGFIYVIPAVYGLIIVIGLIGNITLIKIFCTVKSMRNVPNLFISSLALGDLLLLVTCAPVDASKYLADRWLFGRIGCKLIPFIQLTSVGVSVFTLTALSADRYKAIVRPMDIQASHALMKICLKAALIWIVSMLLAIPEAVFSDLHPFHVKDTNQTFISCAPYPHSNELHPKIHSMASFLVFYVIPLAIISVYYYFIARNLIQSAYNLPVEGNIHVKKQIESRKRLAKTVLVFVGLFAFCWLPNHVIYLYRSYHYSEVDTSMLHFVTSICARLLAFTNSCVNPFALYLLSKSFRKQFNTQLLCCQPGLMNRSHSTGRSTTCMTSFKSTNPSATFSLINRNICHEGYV

Row | SMILES | agonist-induced GRPR internalization (HEK 293 cells co-expressing MOR1D and GRPR, agonist 1 μM, 30 min) | effect on morphine-induced GRPR internalization (HEK 293 cells co-expressing MOR1D and GRPR) | effect on morphine-induced GRPR internalization (HEK 293 cells co-expressing MOR1D and GRPR, listed as Naloxone) | effect on morphine-induced GRPR internalization (naloxone 10 μM, cells co-expressing MOR1D and GRPR)
1 | C[C@@H](NC(=O)[C@@H](N)Cc1ccc(O)cc1)C(=O)NCC(=O)N(C)[C@@H](Cc1ccccc1)C(=O)NCCO [DAMGO] | can be internalized by DAMGO when co-expressed with MOR1D |  |  | 
2 | C=CCN1CC[C@]23c4c5ccc(O)c4O[C@H]2C(=O)CC[C@@]3(O)[C@H]1C5 [naloxone] |  | inhibited morphine-induced GRPR or MOR1D internalization in a dose-dependent manner | dose-dependently blocked | nearly abolish
